Test results reported in PMC12136788.
Some of the results follow.

B1: chr11:74504092:74504093:-_ENSMUSG00000020745_ENSMUST00000021091|mus_mus|FALSE|FALSE (ssRNA)
RNA: GGGAGUUCUACAGUCCGACGAUCCUUCCUUUUUAAAAACGGAAUAUGCCUCUUCAUAGCCAUUUGAACGAAGAUAAUCUGCUAUAGCUCGAUUUAGUUCAUCUCGUUGUCUCUGGGACAGCACCAUUUUGGCUGUAAUGUCAACAACAGAGGAUUGAGCAUCA
B2: 25264311_25266599_1377_CDS_ENSG00000155592_ENST00000328086|human|control|control (ssRNA)
RNA: GGGAGUUCUACAGUCCGACGAUCGGUAUUCCAUUCAUCAGCAAGGGCAGGAACCCAGGGAGAAGGCCGAGCAUUCUUGGGUAAGGGCCGACGUUCUCGCUUUCGGUUCAGCUGUUCCUGGUGUCCUGAGUGGAGGCUUCCAGGCAACAGAGGAUUGAGCAUCA
B3: chr11:63961690:63961691:+_ENSG00000168439_ENST00000305218|hu_hu|FALSE|FALSE (ssRNA)
RNA: GGGAGUUCUACAGUCCGACGAUCCUCGUGUUUUAAGCCCUCCUCAUAGGUUCGCUUGGCUUCUUCAAAGCGGUUUAAGAACUCUAGAGCUGCUGCUUUUCGUGAAUAGCCCUUGCCCCAGUCAGGCUUUAGGUCGACAGUCUUCAACAGAGGAUUGAGCAUCA
B4: chr5:162943533:162943534:+_ENSG00000038274_ENST00000321757|hu_hu|motif|central (ssRNA)
RNA: GGGAGUUCUACAGUCCGACGAUCAGGAAUCCUCAAAACAGCAGCUCCUAGAUUGUUCUCCAGGACAGCCUUUUCUCCAUCGGAUUUUGUUUUGCCAUACAAAUUUAGGGGAGCUGGUAUGUCUUCCUCUCUGUAAGGUGGAUUCAACAGAGGAUUGAGCAUCA
B5: chr3:179287964:179287965:+_ENSG00000136518_ENST00000429709|hu_hu|hu_hu_hu_mus_True|38_58 (ssRNA)
RNA: GGGAGUUCUACAGUCCGACGAUCCUUGAGUGGUGAGAUGGCCUCCAUGUUCUCCCUGGGCACGCGGAGGGCAUUGGUAUCUAUGUAGUAGGUGGGCCCGCCUUGUUUGCCUUUGUCACCAUCAAUCUCCAUCAUUGUACUUCCCAACAGAGGAUUGAGCAUCA
B6: chr14:102368134:102368135:+_ENSG00000078304_ENST00000445439|hu_hu|hu_hu_hu_mus_True|48_48 (ssRNA)
RNA: GGGAGUUCUACAGUCCGACGAUCAAGAGGCUCCAUGAUCUUCACAAACUCUGAUGGUUCAAUUACAUCUAAAAUUUCUUCUAAUUCGUUUAAGAACAUUACUUCUUUUGGACUGUGAGUCUUUGGCCAGUAUUUGAGAAGUGCCAACAGAGGAUUGAGCAUCA
B7: chr11:77336104:77336105:-_ENSG00000074201_ENST00000525064|hu_mus|hu_hu_hu_mus_False|48_78 (ssRNA)
RNA: GGGAGUUCUACAGUCCGACGAUCCUCACACAUUGCUGUGAACAUCGCCUCCAAUGCUGAUUUAUCACUGGGCACAAAUCGAAAUUCAGUAAUAGGUUCAACAUCAUCAUUGUCUUCCUCAUCUUCAUCAGAGAGAGGUUCUUUCAACAGAGGAUUGAGCAUCA
B8: 73911452_73922753_435_3pUTR_ENSMUSG00000051674_ENSMUST00000063882|mouse|control|control (ssRNA)
RNA: GGGAGUUCUACAGUCCGACGAUCAUCCUCAGUUCCUGCAUAUUCAUAAAACCACUCCAGGCACCGCUUACUGGAGAAAGCCUCUUCUUCAGUCUUUAUUCUAGUUGACUCGUAUUUCCUAUACAUGCUGUCAUGCCUGCUUUUCAACAGAGGAUUGAGCAUCA
B9: chr8:38067834:38067835:+_ENSG00000156735_ENST00000287322|hu_hu|FALSE|FALSE (ssRNA)
RNA: GGGAGUUCUACAGUCCGACGAUCCUUGGUUAGCAUUUCUUCCAGAAGCCAGUAUGCUUUGUCUGUCUUUUUUCCUACAAAUUCUUCUACUUCUUGUUCAAGAUACUGGACCUUCUCCAGCACAUGUAUGAUUUUUUUAAUACUCAACAGAGGAUUGAGCAUCA
B10: chr1:193038565:193038566:+_ENSG00000116747_ENST00000367444|hu_mus|FALSE|FALSE (ssRNA)
RNA: GGGAGUUCUACAGUCCGACGAUCGCGACCCCACAUGCCACACUUCAUGCUCUCCUUCAGGUCUUUCUUAAACUGGAUAAAAGUGAAGAGGUGGGUCGGAAUGCGACACACUUCAGGGACAGCUUUAAAGGCUGCUUGCUUUGUCAACAGAGGAUUGAGCAUCA
B11: chrX:20428832:20428833:+_ENSMUSG00000001127_ENSMUST00000120356|mus_hu|FALSE|FALSE (ssRNA)
RNA: GGGAGUUCUACAGUCCGACGAUCACAAUGCUGGUGGAACUUGUAGCCACAGGUUUGGCAACGGAAGCCAUGGAACAGAAACUUAAGGCAGAAGUCACAGAACGCCAGGCUGAAGAAGGUCUUCCGUACAAAAUUGUGCAUGGUCAACAGAGGAUUGAGCAUCA
B12: chr12:39756943:39756944:-_ENSG00000139116_ENST00000544797|hu_mus|hu_hu_hu_mus_False|48_48 (ssRNA)
RNA: GGGAGUUCUACAGUCCGACGAUCGGUUUGGCUGUUACCCCCAAGGGAAUCCUGCAAGAGUCUUGUCAGCUUAGAGUCUCUGUAAGGGACAUGUGUGGCUCUCUUGCUCUUGUCCCCCAAGGCGCUGAUUACAUUCCCAAGAGCCAACAGAGGAUUGAGCAUCA
B13: chr1:220276048:220276049:+_ENSG00000067704_ENST00000302637|hu_mus|motif|central (ssRNA)
RNA: GGGAGUUCUACAGUCCGACGAUCGCAAAUUGCCUGGUUGGCGGGAAUUGUCCAAGGCUGGGUGGUCCAAACUAAAACGCGGACAGGGGAUGAGGCAUCUGUAAGAGACUCCAACUUCGGAGGAGGUCUCAGGAGGGGGAAUCUCAACAGAGGAUUGAGCAUCA
B14: chr9:98468509:98468510:+_ENSMUSG00000032458_ENSMUST00000035033|mus_mus|FALSE|FALSE (ssRNA)
RNA: GGGAGUUCUACAGUCCGACGAUCAAACGUCUUCACCAGUGUCUGAGUUUCAUGAUUCCAAACACACACACUGCCAUUGUAAAGACUAGCCAACAUCCAUGGCUCUGUGGGAUGCAAAUCCACGCUCUUAACUCGGUCAGACCUCAACAGAGGAUUGAGCAUCA

Target: T1, UNK ZnF1-3 (human, UniProt Q9C0B0 31-174)
T1 sequence: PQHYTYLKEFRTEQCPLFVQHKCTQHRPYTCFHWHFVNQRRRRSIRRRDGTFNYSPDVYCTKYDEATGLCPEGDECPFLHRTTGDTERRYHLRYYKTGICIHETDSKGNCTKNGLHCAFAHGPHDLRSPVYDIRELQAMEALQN
Assay: nsRBNS (natural sequence RNA bind-n-seq); RBNS binding buffer (assumed for nsRBNS): 25 mM Tris pH 7.5, 150 mM KCl, 3 mM MgCl2, 0.01% Triton X-100, 500 ug/ml BSA, 20 U/ml SUPERase-In, 4 C; UNK is unkempt and MSI1 is Musashi-1; names of the RNAs are library labels; protein concentration not given here; high values mean tight binding

Binder | binding signal [enrichment R]
B1 | 0.694
B2 | 0.751
B3 | 0.566
B4 | 0.928
B5 | 0.625
B6 | 0.787
B7 | 0.826
B8 | 0.68
B9 | 0.444
B10 | 0.861
B11 | 1.46
B12 | 0.67
B13 | 2.6
B14 | 0.522
